Laboratory results: PubChem BioAssay AID485344 (National Center for Advancing Translational Sciences (NCATS), 2010)
Several values for one entry are separate records, joined by “and”; a condition that tells them apart may be missing. Equal values may be shown once. Among all 340,000 compounds or so, about 6,900 (2%) were called active. Rule as the data show it: active = inhibition above about 30%; inactive = below that, where a call was filed. This is a selection; strong and weak results do not stand in their true shares. Where no call is shown, the source filed none.
Also: 0% is about no effect.

What follows are compounds tested against D(2) dopamine receptor (Homo sapiens) (UniProt P14416) (assay: HTS Assay for Allosteric Antagonists of the Human D2 Dopamine Receptor: Primary Screen for Antagonists). Details: HEK293 TREx D2 cells, calcium flux, dopamine EC80; at 10 µM; stronger effect = higher value.
Chain of UniProt P14416 (P14416 whole entry, looked up): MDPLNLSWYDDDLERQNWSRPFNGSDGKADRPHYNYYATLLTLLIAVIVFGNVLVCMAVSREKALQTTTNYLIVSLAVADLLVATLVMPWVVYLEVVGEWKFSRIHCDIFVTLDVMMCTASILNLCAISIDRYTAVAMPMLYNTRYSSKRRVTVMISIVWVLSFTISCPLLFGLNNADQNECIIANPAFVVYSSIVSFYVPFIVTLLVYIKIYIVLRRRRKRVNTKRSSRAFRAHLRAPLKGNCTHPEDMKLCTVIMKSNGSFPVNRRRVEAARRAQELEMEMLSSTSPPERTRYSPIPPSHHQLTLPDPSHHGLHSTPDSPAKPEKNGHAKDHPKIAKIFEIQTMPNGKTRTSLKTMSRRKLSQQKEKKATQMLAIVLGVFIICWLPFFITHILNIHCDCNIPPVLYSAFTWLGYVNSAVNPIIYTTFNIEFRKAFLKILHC
How it was run: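 Inhibition of EC80 dopamine-driven calcium flux, recorded kinetically, defines activity here; cells are a tetracycline-induced HEK293 T-REx line expressing force-coupled D2.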
For `CCOC(=O)C1CCCN(C(=O)c2ccc(-n3ccc4ccccc43)s2)C1` (centres undefined), the inhibition was 0.121%.
With `COc1cccc(-c2ccc3c(N)c(C(=O)Nc4cc(F)ccc4F)sc3n2)c1` the inhibition was -23.6%.
Compound `CCC(=O)Nc1ccc2nc(SCCOc3ccc(C)cc3)sc2c1` has an inhibition of -10.5%.
With `CCOC(=O)C1CCN(C(=O)CN2c3ccc(CC)cc3-c3ccccc3S2(=O)=O)CC1` the inhibition was -12.8%.
Compound `CCS(=O)(=O)c1ncc(N(Cc2ccc(F)cc2)Cc2ccco2)c(C(=O)Nc2cc(C)ccc2C)n1` has an inhibition of 1.75%.
With `CCCn1c(NCc2ccc(N(CC)CC)cc2)nc2ccccc21` the inhibition was -8.38%.
Compound `CCCN(CCC)C(=O)Cn1c(=O)n(-c2ccc(OC)cc2)c(=O)c2ccc(C(=O)NCc3ccc(C)cc3)cc21` has an inhibition of -19.8%.
Compound `Cc1ccc(-n2c(SCC(=O)Nc3cccc(C)c3)nc3c(oc4ccccc43)c2=O)cc1` has an inhibition of -17%.
`CN1CCN(c2nc3c(S(=O)(=O)c4ccccc4)nnn3c3ccsc23)CC1` showed an inhibition of 0.156%.
`CCN1CCN(c2c(S(=O)(=O)c3ccc(C)c(C)c3)cnc3ccc(F)cc23)CC1` was tested, and the inhibition was active: 37.1%.
`Cn1c(=O)c(NCCc2ccccc2)c2c3c(cccc31)C(=O)c1ccccc1-2` was tested, and the inhibition was active: 71.7%.
In the case of `Cc1nn(CC(=O)Nc2ccccc2F)c(=O)c2c(C)n(-c3ccc(Cl)cc3)nc12`, the inhibition is reported as -5.73%.
`COc1ccc(NC(=O)CSc2cc(-c3ccccc3)nc(C)n2)cc1` showed an inhibition of 8.01%.
For `O=c1c2cnn(-c3ccc(Cl)cc3)c2ncn1Cc1cccc(C(F)(F)F)c1`, the inhibition was 4.78%.
Work on `CCOc1ccc(-c2csc(/C(C#N)=C/c3ccc(Br)cc3)n2)cc1` yielded an inhibition of 9.42%.
Compound `CC(=O)N1c2c(cc(Br)cc2S(=O)(=O)N2CCN(c3cccc(Cl)c3)CC2)CC1C` (centres undefined) has an inhibition of -8.3%.
`COc1cccc(N2CCN(C(=O)c3cnn(-c4ccc(C)cc4C)c3C3CCN(C(=O)OC(C)(C)C)CC3)CC2)c1` showed an inhibition of 11.7%.
For `Cc1ccc(C)c(N2CCN(C3=C(c4ccccc4)C(=O)c4ccccc43)CC2)c1`, the inhibition was -8.61%.
For `CCC(=O)Nc1cc(C(=O)NCC2CCCN2CC)c(OC)cc1N(C)C` (centres undefined), the inhibition was active: 73.2%.
Work on `CC(=O)c1cccc(NS(=O)(=O)c2ccc3c(c2)NC(=O)CC(=O)N3)c1` yielded an inhibition of -6.35%.
Work on `CCN(Cc1ccccc1)C(=O)c1cc2c(s1)-c1c(C)cccc1OC2` yielded an inhibition of -4.87%.
`Cc1ccc(Cl)cc1NC(=O)Cn1c(=O)n(Cc2ccc(C(=O)NCc3ccc4c(c3)OCO4)cc2)c(=O)c2ccccc21` was tested, and the inhibition was 7.25%.
Work on `O=C(CN1C(=O)COc2ccc(S(=O)(=O)N3CCOCC3)cc21)N1CCN(c2ccc(F)cc2)CC1` yielded an inhibition of -2.52%.
Work on `CC(Sc1nc(=O)cc(N)n1CCc1ccccc1)C(=O)Nc1ccccc1C#N` (centres undefined) yielded an inhibition of -13.6%.
`O=C(NC1CCCCC1)c1ccc2c(c1)N(Cc1ccc(Cl)cc1)C(=O)c1ccccc1S2(=O)=O` gave an inhibition of 10.8%.
Work on `COc1ccc(OC)c(NC(=O)CN2C(=O)CCc3cc(S(=O)(=O)N4CCCCC4)ccc32)c1` yielded an inhibition of -28.6%.
For `Cc1nnc(NCc2ccccc2)c2c1nnn2Cc1ccc(F)cc1`, the inhibition was 16.1%.
`CCc1cccc(NC(=O)Cn2nc(-c3cc(C)ccc3C)ccc2=O)c1` showed an inhibition of 12.3%.
Compound `Cc1ccc(CN2C(=O)C3(c4ccccc42)N(c2cccc(C(F)(F)F)c2)C(=O)CS3(=O)=O)cc1` (centres undefined) has an inhibition of 7.07%.
`O=c1cc(CSc2n[nH]c(-c3ccccc3)n2)[nH]c2ccccc12` was tested, and the inhibition was 16.3%.
In the case of `COc1ccccc1NC(=O)CSc1oc(-c2cccs2)nc1S(=O)(=O)c1ccccc1`, the inhibition is reported as -9.74%.
`COc1cc(NC(=O)c2cc3c(=O)n(Cc4cccs4)ccc3nc2C)cc(OC)c1OC` showed an inhibition of -17.6%.
`CC(Oc1ccccc1Cl)C(=O)N1CCN(CCc2ccccn2)CC1` (centres undefined) gave an inhibition of 10%.
With `Cc1ccc(C)c(Cn2nc(-c3cc(C)ccc3C)ccc2=O)c1` the inhibition was 0.0569% and active: 35.3%.
`CCOC(=O)c1c(S(=O)(=O)N2CCCC(C(=O)N3CCN(c4ccccc4)CC3)C2)c(C)n(C)c1C` (centres undefined) showed an inhibition of 21.4%.
Work on `Cc1ccccc1OC(=O)CSc1nnc(-c2cccs2)o1` yielded an inhibition of 18.4%.
`COc1ccc(-c2nc3ccccc3o2)cc1NC(=O)COc1ccc(C(C)(C)C)cc1` was tested, and the inhibition was -22.3%.
Compound `COc1cccc(N2CC(NC(=O)c3ccc(S(=O)(=O)N4CCCCC4)cc3)CC2=O)c1` (centres undefined) has an inhibition of 27.8%.
Compound `CCOc1ccc(S(=O)(=O)NCC(c2ccco2)S(=O)(=O)c2ccc(F)cc2)cc1` (centres undefined) has an inhibition of 0.979%.
`CCOC(=O)c1cc2c(=O)n3ccccc3nc2n(CC2CCCO2)c1=NC(=O)c1ccc(C)cc1` (centres undefined) was tested, and the inhibition was 0.59%.
`O=[N+]([O-])c1ccc(C(c2sc3nc(-c4ccco4)nn3c2O)N2CCN(c3cccc(Cl)c3)CC2)cc1` (centres undefined) was tested, and the inhibition was -27.3%.
`CCc1ccc2oc(C(=O)Nc3sc4c(c3C(=O)NC)CCCC4)cc(=O)c2c1` gave an inhibition of -2.77%.
In the case of `O=C(Nc1ccc(Cl)cc1F)c1cc(S(=O)(=O)NCc2ccc3c(c2)OCO3)ccc1F`, the inhibition is reported as -7.02%.
In the case of `CCOc1ccc(C(=O)Nc2cccc(OCc3cc(=O)n4cc(C)sc4n3)c2)cc1`, the inhibition is reported as 3.38%.
`CCCCOC(=O)c1cccc(NC(=O)c2cc3ccccc3o2)c1` showed an inhibition of -2.25%.
`COc1cccc(CNCCSc2nnnn2C)c1OCc1ccccc1F` showed an inhibition of 7.94%.
With `CCCCn1cc(S(=O)(=O)c2cccc(C)c2)c(=O)c2cc(F)c(N3CCOCC3)cc21` the inhibition was -14%.
`O=C(NCCc1ccccc1)c1ccc(CSc2nc3ccncc3n2Cc2ccc(F)cc2)cc1` showed an inhibition of 0.425%.
With `Cc1ccc(-c2nnn3c2nc(NCC(C)c2ccccc2)c2ccccc23)cc1` (centres undefined) the inhibition was -10.6%.
Work on `COc1cccc(CNC(=O)c2ccc3c(c2)nc2n3CCOC2)c1` yielded an inhibition of -3.65%.
`CCOC(=O)CSc1nc2sc3c(c2c(=O)n1-c1ccccc1)CC(C(C)C)OC3` (centres undefined) showed an inhibition of 0.263%.
For `CCOc1ccc(CNC(=O)c2ccc(CS(=O)Cc3ccc(Cl)cc3)o2)cc1` (centres undefined), the inhibition was -10.7%.
In the case of `CCN(Cc1ccccc1)C(=O)CN1C(=O)COc2ccc(S(=O)(=O)NC3CCCC3)cc21`, the inhibition is reported as 4.34%.
`CCOC(=O)c1[nH]c(C)c(C(=O)NC(CC)Cc2ccccc2)c1C` (centres undefined) was tested, and the inhibition was 13%.
`O=C(CN1C(=O)COc2ccc(S(=O)(=O)NC3CCCC3)cc21)Nc1ccc(Cl)cc1` showed an inhibition of 20.6%.
`CC(=O)Nc1ccc(NC(=O)CSc2nc3ccccc3nc2N2CCCCC2)cc1` gave an inhibition of -2.26%.
`CCN1CCN(c2ncnc3c2cnn3-c2ccc(C)c(C)c2)CC1` gave an inhibition of 15.3%.
`Cc1ccc(C)c(NC(=O)Cn2c(=O)n(CC3CCCO3)c(=O)c3ccccc32)c1` (centres undefined) showed an inhibition of -4.38%.
Work on `COc1ccc(C(=O)Nc2cc(C)c(O)c(-c3nc4ccccc4s3)c2)cc1OC` yielded an inhibition of -5.15%.
